Measured values from publication PMC10412561 (Nature Communications, 2023).

Molecular target: T1, ValDLT (Vibrio alginolyticus, UniProt A0A7Y4B3E8)
T1 construct: gene F0254_14065

In the case of `CCCCC/C=C\C/C=C\C/C=C\C/C=C\CCCC(=O)O` [ARA, arachidonic acid], the “X-ray crystal structure of the complex” value (co-crystallised with 1.25 mM ARA, acyl-binding pocket) is reported as “We also solved the structures of ValDLT in complex with arachidonic acid (ARA)”.

In the case of `CC/C=C\C/C=C\C/C=C\C/C=C\C/C=C\C/C=C\CCC(=O)O` [DHA, docosahexaenoic acid], the “X-ray crystal structure of the complex” value (co-crystallised with 1.25 mM DHA, acyl-binding pocket) is reported as “arachidonic acid (ARA) and docosahexaenoic acid (DHA), two other long-chain fatty acids”.

In the case of `CCCCCCCCCCCC(=O)O` [LAA, lauric acid], the “X-ray crystal structure of the complex” value (co-crystallised with 3 mM sodium laurate, acyl-binding pocket of monomer A) is reported as “We solved the crystal structure of ValDLT in complex with lauric acid (LAA)”.

With `CCCCCCCC/C=C\CCCCCCCC(=O)O` [OLA, oleic acid] the “X-ray crystal structure of the complex” value (co-crystallised with 1 mM oleoyl-CoA, oleic acid modelled in acyl-binding pocket of monomer A) was “we solved the ValDLT structure in complex with oleic acid (OLA)”.

Where two headings read alike, the source gives them in different places.
